Measurements from PMC4612375, “Collapse of the native structure caused by a single amino acid exchange in human NAD(P)H:quinone oxidoreductase” (The FEBS journal, 2014).

B1: NQO1 P187S (enzyme)
chain: not shown
notes: NAD(P)H:quinone oxidoreductase 1 (NQO1), human, UniProtKB/[…], naturally occurring variant P187S (SNP C609T); made by site-directed mutagenesis of the pET28a construct; in the crystal no density for residues 1-3 (both protomers) and residue 274 (one protomer); also called P187S variant; NQO1*2 gene product; source: E. coli, purified (Ni-NTA HisTrap FF, Superdex 200 SEC)
B2: Human NAD(P)H:quinone oxidoreductase 1 (enzyme)
chain: not shown
notes: NAD(P)H:quinone oxidoreductase 1 (NQO1), human, UniProtKB/[…]; gene codon-optimized for E. coli and synthesized, cloned into pET28a (NdeI/XhoI); also called NQO1; WT; source: E. coli, purified (Ni-NTA HisTrap FF, Superdex 200 SEC)

Target: the molecule itself
Experiment: SEC; analytical Superdex-200 10/300 GL, 50 mM Hepes pH 7, 150 mM NaCl; 100 uL of ~300 uM protein injected, 0.5 mL/min; column calibrated with molecular mass standards

| Protein | stoichiometry N |
| --- | --- |
| B1 | 2 |
| B2 | 2 |
